Measurements reported in article PMC4336329 (PLoS ONE, 2015).
Among all 310,000 compounds or so, about 2,200 (0.71%) showed an effect of 50% or more. Effects have a minus sign here. The list shows a part of the results.

The compounds below were run against human ether-à-go-go-related gene (hERG) potassium channel (human, UniProt Q12809) (assay: primary screen, population patch clamp on CHO cells stably expressing hERG).
Chain of human ether-à-go-go-related gene (hERG) potassium channel (Q12809 whole entry, looked up): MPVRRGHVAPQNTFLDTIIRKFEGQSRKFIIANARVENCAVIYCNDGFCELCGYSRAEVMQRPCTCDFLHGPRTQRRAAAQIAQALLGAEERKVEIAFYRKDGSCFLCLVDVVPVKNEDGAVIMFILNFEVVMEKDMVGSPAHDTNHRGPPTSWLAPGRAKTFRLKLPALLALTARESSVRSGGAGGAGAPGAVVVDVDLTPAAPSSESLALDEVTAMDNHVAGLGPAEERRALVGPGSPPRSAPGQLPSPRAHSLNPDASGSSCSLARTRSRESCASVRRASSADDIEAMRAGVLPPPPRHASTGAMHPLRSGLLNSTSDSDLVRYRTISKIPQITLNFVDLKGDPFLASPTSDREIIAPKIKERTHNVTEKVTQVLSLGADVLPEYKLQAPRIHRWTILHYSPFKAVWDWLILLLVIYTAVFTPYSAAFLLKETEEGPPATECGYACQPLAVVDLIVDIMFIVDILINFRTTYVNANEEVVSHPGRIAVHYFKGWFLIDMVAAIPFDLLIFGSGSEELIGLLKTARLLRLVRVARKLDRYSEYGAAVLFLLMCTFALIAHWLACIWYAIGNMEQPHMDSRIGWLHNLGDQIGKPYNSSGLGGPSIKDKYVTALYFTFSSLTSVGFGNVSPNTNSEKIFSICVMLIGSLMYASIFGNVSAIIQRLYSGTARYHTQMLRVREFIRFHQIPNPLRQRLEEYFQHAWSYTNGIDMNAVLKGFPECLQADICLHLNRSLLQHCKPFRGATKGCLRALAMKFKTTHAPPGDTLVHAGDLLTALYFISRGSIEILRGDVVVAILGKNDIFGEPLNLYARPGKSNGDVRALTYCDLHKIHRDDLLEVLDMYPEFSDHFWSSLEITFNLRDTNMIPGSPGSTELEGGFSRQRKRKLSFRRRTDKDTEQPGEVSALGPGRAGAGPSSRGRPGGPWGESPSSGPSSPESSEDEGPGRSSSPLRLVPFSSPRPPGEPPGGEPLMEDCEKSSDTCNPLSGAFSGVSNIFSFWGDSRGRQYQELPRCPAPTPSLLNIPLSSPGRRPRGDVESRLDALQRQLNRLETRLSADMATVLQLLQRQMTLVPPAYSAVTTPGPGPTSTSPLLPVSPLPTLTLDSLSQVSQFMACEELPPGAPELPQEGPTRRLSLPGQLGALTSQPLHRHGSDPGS

SMILES	hERG current change (%, negative = inhibition) at 1uM [%]
CCOC(=O)c1c(C)oc2c1C(=O)c1ccccc1C2=O	6.86
CC(=O)CC(c1ccccc1[N+](=O)[O-])c1c(O)c2ccccc2oc1=O (stereo not drawn)	10.3
O=S(=O)(Nc1cc(Cl)ccc1-n1cncn1)c1ccccc1Cl	-7.45
CC(=O)Nc1ccc(S(=O)(=O)N[C@@H](C)C(=O)OCC(=O)NC2CCCC2)cc1	-5.49
CCOC(=O)C1(Cc2ccccc2C)CCCN(C(=O)CCn2nccc2C)C1 (stereo not drawn)	10.3
O=Cc1ccc(-c2ccccc2OC(F)(F)F)o1	7.76
CCc1nnc(NC(=O)CN2CCN(C(=O)c3ccccc3)CC2)s1	10.9
CC1(C)C(C=C(Cl)Cl)C1C(=O)Nc1ccc(S(=O)(=O)Nc2ncccn2)cc1 (stereo not drawn)	13.2
O=C1c2ccccc2C(=O)N1CCCCSc1nnc2c(Cl)cc(Cl)cn12	-20.9
CN(Cc1ccc(Cl)cc1)C(=O)c1ccc(S(=O)(=O)NCc2ccco2)cc1	0.605
O=c1[nH]c(C2CCCN(S(=O)(=O)c3ccccc3F)C2)nc2c1nnn2Cc1ccccc1Cl (stereo not drawn)	16.1
CC(C)(C)NC(=O)COc1ccc2oc3c(c2c1)CCCC3	15.3
CC(=O)c1cnc2nc(SCc3ccccc3C)nn2c1C	14.5
O=C(Nc1nnc(SCC(=O)N2CCOCC2)s1)c1ccccc1	7.6
C#CCn1c(=O)cc(C)c2ccccc21	8.52
O=C1CN(C(=O)COC(=O)/C=C/c2ccco2)c2ccccc2N1	7.65
Oc1ccc(/C=N/Nc2ccnc3cc(Cl)ccc23)c(O)c1	15.9
CC(C)(C)NC(=O)C(=O)NN=C1CCCCCC1	14
COc1ccc(S(=O)(=O)N2CCC(C(=O)NCCC3=CCCCC3)CC2)cc1OC	4.83

SMILES	hERG current change (%, negative = inhibition) at 1uM [%]
CCNC(=S)N1CCN(c2cccc(C(F)(F)F)c2)CC1	15.2
CC(Oc1ccc2c(c1)oc(=O)c1ccccc12)C(=O)NCC1CCC(C(=O)O)CC1 (stereo not drawn)	18.4
CNS(=O)(=O)c1ccc2ccccc2c1	11.7
O.O=C([O-])c1ccn2c(C(=O)c3ccccc3)c(-c3ccccc3)cc2c1	11
COC(=O)CSc1snnc1-c1ccc(F)cc1	4.32
CCOc1ccc(N=C2NC(=O)SC2CC(=O)OC)cc1 (stereo not drawn)	6.47
Cc1ccc(CN2CC(C(=O)Nc3cccc(S(=O)(=O)N4CCCCC4)c3)CC2=O)cc1 (stereo not drawn)	13.2
CCc1ccc2c(c1)c1nnc(NN)nc1n2C	-0.333
CCOc1ccc(C2C(C(=O)c3cccs3)=C(O)C(=O)N2Cc2cccnc2)cc1 (stereo not drawn)	8.36
O=C(Cc1c(F)cccc1Cl)OCN1C(=O)c2ccccc2C1=O	17.4
O=C(CCc1ccc(S(=O)(=O)NCCc2ccccc2)cc1)NCc1ccco1	6
O=C(NCCN1CCOCC1)c1cccc(S(=O)(=O)N2CCCCCC2)c1	8.71
COc1cc(C2C(C(=O)c3cccs3)=C(O)C(=O)N2Cc2ccco2)cc(OC)c1OC (stereo not drawn)	4
COCCN1Cc2cccc(C(=O)Nc3ccc4c(c3)OCCO4)c2C1=O	2.72
CC(C)(C)C1CCC(N2CCN(c3ccccc3)CC2)CC1 (stereo not drawn)	17.2
CN1CCN(C(=O)CCNC(=O)Cn2cnc3ccccc3c2=O)CC1	14.8
CC(C)c1nnc(NC(=O)CSc2ncn[nH]2)s1	9.79
Cc1ccc(C)c(NC(=O)CCNC(=O)N2C[C@H]3C[C@@H](C2)c2cccc(=O)n2C3)c1	8.68
CCc1cccc(C)c1NC(=O)CSc1nnc(-c2cc3cc(Br)ccc3o2)n1CC	15.4

SMILES	hERG current change (%, negative = inhibition) at 1uM [%]
CN(C)c1cccc(C(=O)OC(C(=O)Nc2ccc(Cl)cc2C(F)(F)F)c2ccccc2)c1 (stereo not drawn)	0.322
Cl.Fc1c(F)c(F)c(N2CCNCC2)c(F)c1F	16.7
CCc1ccccc1NC(=O)Cn1cccc1C1=NC(c2ccccc2)CO1 (stereo not drawn)	3.85
O=C(NCc1ccc(Cl)cc1)c1cc(=O)[nH]c2ccc(S(=O)(=O)N3CCOCC3)cc12	12.7
NC(Cc1ccc(OC(F)F)cc1)C(=O)O (stereo not drawn)	10.9
Cc1cccc(NS(=O)(=O)c2cc(C(=O)N3CCOCC3)ccc2Cl)c1	8.2
CCOc1ccc(NC(=O)CCNS(=O)(=O)c2cccc3nonc23)cc1	1.12
CC1CCCC(NC(=O)COC(=O)c2ccc(S(=O)(=O)N3CCOCC3)cc2)C1C (stereo not drawn)	12.1
NC(=O)C1CCN(c2c([N+](=O)[O-])cc(C(F)(F)F)cc2[N+](=O)[O-])CC1	2.89
Cn1c(/C=N/NC(=O)c2ccccc2)nc2ccccc21	7.06
Cc1ccc(CN2[C@@H](Cc3ccccc3)C(=O)CS2(=O)=O)cc1	4.2
O=C(COc1ccc2ccccc2c1Br)Nn1cnnc1	-8.48
Nc1nonc1C(=O)N/N=C/c1cc2c(cc1[N+](=O)[O-])OCO2	13.8
CC(C)Oc1cccc(C(=O)C2CCCN(C(=O)c3cc(C4CC4)[nH]n3)C2)c1 (stereo not drawn)	6.4
CCn1cc(SCC(=O)Nc2cc(C)on2)c2ccccc21	9.96
O=C(Nc1cc2c3c(c1)C1CCCC1CN3CC1CCCC21)c1ccccc1 (stereo not drawn)	9.32
CCCn1c(CN2CCN(c3cccc(Cl)c3)CC2)nc2c1c(=O)n(C)c(=O)n2C	-3.54
O=C(CC1Nc2ccccc2NC1=O)NC1CCCCC1 (stereo not drawn)	4.71
O=C(Nc1cccc(C(=O)Nc2ccc(F)cc2F)c1)c1ccccc1	9.47
